The whole screen tested about 110,000 compounds, of which about 230 (0.21%) showed an effect of 50% or more. The list shows a part of the results.
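Further: 30 min substrate incubation versus DMSO and 10 µM JCP410 controls.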

Chain of DPAP1 (Q8IIJ9 whole entry, looked up): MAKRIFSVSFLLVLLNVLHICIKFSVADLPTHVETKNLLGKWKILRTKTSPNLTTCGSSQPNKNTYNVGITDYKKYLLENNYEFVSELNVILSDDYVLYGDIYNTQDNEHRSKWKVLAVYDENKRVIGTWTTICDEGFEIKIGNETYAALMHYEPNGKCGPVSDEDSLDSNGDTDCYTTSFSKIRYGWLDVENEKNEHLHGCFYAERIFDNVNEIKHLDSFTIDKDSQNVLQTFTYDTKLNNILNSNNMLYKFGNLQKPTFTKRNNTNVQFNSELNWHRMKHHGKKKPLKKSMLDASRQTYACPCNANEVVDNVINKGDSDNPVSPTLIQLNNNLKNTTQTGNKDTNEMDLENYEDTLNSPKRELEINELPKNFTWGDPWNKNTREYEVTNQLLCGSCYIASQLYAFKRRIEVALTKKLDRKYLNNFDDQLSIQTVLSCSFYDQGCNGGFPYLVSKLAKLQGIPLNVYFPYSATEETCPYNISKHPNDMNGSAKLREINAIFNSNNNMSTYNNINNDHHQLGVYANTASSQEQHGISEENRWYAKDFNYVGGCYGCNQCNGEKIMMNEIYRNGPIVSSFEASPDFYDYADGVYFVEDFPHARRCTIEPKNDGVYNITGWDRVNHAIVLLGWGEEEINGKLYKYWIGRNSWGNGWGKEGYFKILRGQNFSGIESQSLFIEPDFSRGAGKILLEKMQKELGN

This assay has as its target DPAP1 (Plasmodium falciparum, UniProt Q8IIJ9). Kind of assay: primary screen, percent inhibition; read by cleavage of a fluorogenic dipeptide substrate; higher = more effect of the substance. Further details: species or system P. falciparum D10 trophozoite lysates; single well.
`O=C(/C=C/c1cccc([N+](=O)[O-])c1)Nc1cccc(C(F)(F)F)c1`: the “% Inhibition @ 10 uM” value is -3.44%. With `COc1cccc(-c2cc(C(=O)N3CCOCC3)no2)c1`, the “% Inhibition @ 10 uM” value is listed as -3.36%. For `CCN(CC)CCN(C)Cc1cccc2ccccc12` the value was -2.21%; for `O=C(NCCc1ccccc1)C1c2ccccc2Oc2ccccc21`, -4.35%; for `COc1ccc(CCNC(=O)C2CC(=O)N(CCc3ccc(C)cc3)C2)cc1OC` (stereo not drawn), -7.35%. For `COc1ccc(/C=C(\NC(=O)c2ccc(C)cc2)C(=O)NCC(=O)O)cc1`, the “% Inhibition @ 10 uM” value stood at 1.91%. For `CCSc1nc(O)c2cnn(-c3ccc(C)cc3)c2n1` the value was 1.9%; for `CC(C)CC(C(=O)NCC#N)c1cccc(-c2cccc(-c3ccno3)c2)c1` (stereo not drawn), -4.72%. For `Cc1ccnc(NCn2nnc3ccccc32)c1`, the “% Inhibition @ 10 uM” value is on record as 2.32%.

With `C=CCN1C(=O)N/C(=C/c2ccc(-c3cccc(Br)c3)o2)C1=O`, the “% Inhibition @ 10 uM” value is on record as -1.17%. For `Cc1ccc(OCc2nc(-c3ccc(C(=O)N4CCC(C)CC4)cc3)oc2C)cc1`, the “% Inhibition @ 10 uM” value came to 1.14%. In the case of `CCOC(=O)c1c(C)c(C(=O)NC(C)CCc2ccccc2)c(C)n1C` (stereo not drawn), the “% Inhibition @ 10 uM” value is given as 3.32%. For `COC(=O)/C(C#N)=C/c1c(Oc2ccc(C)cc2C)nc2c(C)cccn2c1=O` the value was -3.23%; for `CCn1c2ccccc2n2cc(-c3ccc4c(c3)OCO4)nc12`, 0.486%; for `CCCC[C@@H](CS(=O)(=O)Nc1ccc(OC)cc1)NC(=O)[C@H](CS(=O)(=O)Cc1ccccc1OC(F)F)NC(=O)N1CCOCC1`, -8.36%. For `CC1CCc2c(sc(NC(=O)c3ccccc3Cl)c2C(=O)NCc2ccco2)C1` (stereo not drawn) the value was -3.98%. Turning to `CC1(C)CC(O)=C/C(=N/CCN2CCNCC2)C1`, the “% Inhibition @ 10 uM” value was -2.8%.

`Oc1c2c(nc3cc(-c4ccccc4)nn13)CCCC2`: the “% Inhibition @ 10 uM” value was -6.7%.

`CSc1ccccc1C(=O)N[C@@H](CC1CCCCC1)C(=O)NCC#N`: the “% Inhibition @ 10 uM” value is listed as -0.214%. With `CCOC(=O)c1c(S(=O)(=O)N(CCC(C)C)Cc2ccco2)c(C)n(C)c1C`, the “% Inhibition @ 10 uM” value is -5.67%.

For the compound `CCCCCCCC(=O)CCCC(=O)Nc1ccc(C(C)=O)cc1`, the “% Inhibition @ 10 uM” value was 0.716%. Turning to `CCN(CC)C(=O)Cn1ncc2c1-c1cc(C)ccc1OC2`, the “% Inhibition @ 10 uM” value is recorded as 0.695%. For `CCOC(=O)c1c(NC(=O)CN(C)c2ccccc2)sc2c1CCCC2`, the “% Inhibition @ 10 uM” value was -6.71%. Turning to `COc1ccc(-c2nc(CSc3nncn4c3cc3oc(C)cc34)c(C)o2)cc1OC`, the “% Inhibition @ 10 uM” value is 4.4%. In the case of `COc1ccc(N2CCN(Cc3ccc(C(=O)O)cc3)CC2)cc1`, the “% Inhibition @ 10 uM” value was determined as 0.847%.

With `O=C(NC(c1ccccc1)n1nnc2ccccc21)c1ccccc1` (stereo not drawn), the “% Inhibition @ 10 uM” value is on record as -5.5%. For `CC(=O)NS(=O)(=O)c1ccc(NC(=O)COc2cc(Cl)c(Cl)cc2Cl)cc1` the value was -3.09%.

Turning to `O=C(Nc1ccccc1)c1ccc(NC(=O)c2cccs2)cc1`, the “% Inhibition @ 10 uM” value is listed as -7.02%.

As for `COc1ccc(C(O)CCNC(CC(C)C)C(=O)O)cc1` (stereo not drawn), the “% Inhibition @ 10 uM” value is -1.15%. As to `Cc1noc(C)c1S(=O)(=O)N1CCN(C(c2ccccc2)c2ccc(Cl)cc2)CC1` (stereo not drawn), the “% Inhibition @ 10 uM” value is -5.37%. Regarding `C=CCn1c(SCC(=O)N2CCc3ccccc3C2)nc2sc(C)c(C)c2c1=O`, the “% Inhibition @ 10 uM” value is listed as -5.01%. `O=C(NC1CCSC1=O)c1ccc(Br)cc1` (stereo not drawn): the “% Inhibition @ 10 uM” value came to 2.22%. Regarding `Cc1cc2c(n1-c1ccc(C(=O)NCc3ccco3)cc1)CCC(C)C2` (stereo not drawn), the “% Inhibition @ 10 uM” value is reported as -5.3%. Next, `CC1(C)CC(=O)C2=C(C1)c1c(ccc3ccccc13)NC2c1cccc([N+](=O)[O-])c1O` (stereo not drawn): 4.54%; `Cc1cccc2sc(NC(=O)c3cncc(Br)c3)nc12`: -3.39%.

`CCOC(=O)c1cc(S(=O)(=O)N2CCN(c3ccccn3)CC2)cn1C`: the “% Inhibition @ 10 uM” value came to 3.92%. For `Cc1ccc2c(c1)C1CN(C)CCC1N2C(=O)c1cc([N+](=O)[O-])cc([N+](=O)[O-])c1` (stereo not drawn), the “% Inhibition @ 10 uM” value is on record as 7.04%. Next, `O=C(Nc1nc(-c2ccc(S(=O)(=O)N3CCCC3)cc2)cs1)c1ccco1`: 10.5%. With `Cc1nnc(NC23CC4CC(CC(C4)C2)C3)o1`, the “% Inhibition @ 10 uM” value was -2.78%.

With `CC(C)=NOc1nc(N)nc(N(C)C)n1`, the “% Inhibition @ 10 uM” value is on record as 12%. Turning to `O=C(O)c1cccc(NS(=O)(=O)c2ccc(C3CCCCC3)cc2)c1`, the “% Inhibition @ 10 uM” value turned out to be 14.3%. Next, `CCOc1ccc(C2C3=C(CC(C)(C)CC3=O)N(CC(=O)O)C3=C2C(=O)CC(C)(C)C3)cc1`: -2.25%; `Cc1ccc(OCCCCCN2CCOCC2)cc1`: -0.546%; `Cc1cccc(NC(=O)C2CCCN2S(=O)(=O)c2cccc3nsnc23)n1` (stereo not drawn): -0.465%. For `CN(C)c1ccc(-c2c(C#N)c(N)nc(S)c2C#N)cc1` the value was 7.55%; for `CCC(=O)Nc1ccc(C(=O)c2ccccc2)cc1`, 3.24%; for `Cc1cc(C)c(N2C(=O)C3C4C=CC(C)(O4)C3C2=O)c(C)c1` (stereo not drawn), 2.08%. `CCOc1ccc(C(=O)C2=C(O)C(=O)N(CCc3ccccc3)C2c2ccncc2)cc1` (stereo not drawn): the “% Inhibition @ 10 uM” value is listed as 3.57%. Take `Cn1c(C(C)(O)C(O)c2ccccc2)nc2ccccc21` (stereo not drawn): the “% Inhibition @ 10 uM” value was -2.09%. `NC(=O)c1cc(NC(=O)c2ccc([N+](=O)[O-])cc2)cc(C(N)=O)c1`: the “% Inhibition @ 10 uM” value was determined as 2.54%. As for `CCCN1COc2ccc3c(C)c(CC)c(=O)oc3c2C1`, the “% Inhibition @ 10 uM” value came out at 2.09%.

For `O=C(Nc1cccnc1Cl)c1cnn2c(C(F)(F)F)cc(-c3cccs3)nc12`, the “% Inhibition @ 10 uM” value is reported as -1.69%. Consider `Cn1nc(C2CC2)cc1C(=O)NCCc1ccccc1`, for which the “% Inhibition @ 10 uM” value is -0.0108%. On to `O=C(Nc1cc(Cl)ccc1Cl)c1ccc(Br)o1`, for which the “% Inhibition @ 10 uM” value is recorded as -0.687%.

For the compound `Cc1ccc2c(c1)c(/C=C1/C(=N)N3C=CSC3=NC1=O)c(C)n2Cc1ccc2c(c1)OCO2`, the “% Inhibition @ 10 uM” value stood at 5.44%.

Regarding `CCc1ccc(C2N=C3Oc4ccccc4C=C3C(=O)N2)cc1` (stereo not drawn), the “% Inhibition @ 10 uM” value amounted to 1.68%. As for `O=C(NC(=O)c1ccc(Cl)cc1)Nc1cccc(OC(F)F)c1`, the “% Inhibition @ 10 uM” value is on record as 3.5%. As for `CCOc1cc(C2C3=C(O)CC(c4ccc(OC)cc4)CC3=NC(C)=C2C(=O)OC)ccc1O` (stereo not drawn), the “% Inhibition @ 10 uM” value was -0.053%.

Regarding `COc1cc(-c2nnc3n2N=C(c2ccccc2)CS3)cc(OC)c1OC`, the “% Inhibition @ 10 uM” value stood at 2.89%. On to `CC(C)c1ccc(/C=C2\N=C(c3ccc(F)cc3)OC2=O)cc1`, for which the “% Inhibition @ 10 uM” value was -4.46%. For `COc1ccc2c(c1)C(=O)N(c1ccc(C)cc1)C(=O)/C2=C/N1CCOCC1`, the “% Inhibition @ 10 uM” value came out at 4.74%. Next, `Cc1ccc(Nc2ccccc2C(=O)N2CCOCC2)c(C)c1`: 1.67%; `CC(=O)c1cc(-c2ccc(F)cc2)n(CC(=O)NCc2cccs2)c1C`: 3.07%. Regarding `CC(=O)N[C@H]1[C@H](Oc2nc3cc(C)ccc3o2)O[C@H](CO)[C@@H](O)[C@@H]1O`, the “% Inhibition @ 10 uM” value is on record as 1.64%. Take `Clc1cccc(CN2CCN(c3ccccn3)CC2)c1Cl`: the “% Inhibition @ 10 uM” value is reported as 0.605%. For `CC12CN3CC(C)(CN(C1)C3(C)CCC(=O)O)C2=O` (stereo not drawn), the “% Inhibition @ 10 uM” value is reported as -4.21%. Take `CC[C@@H](C)[C@H](NC(=O)c1cccnc1)C(=O)N[C@@H](CCc1ccccc1)C(=O)COCc1ccccc1`: the “% Inhibition @ 10 uM” value was determined as 3.66%. For `CCOc1ccc(CCNc2ccc3nnc(-c4ccccc4)n3n2)cc1OCC`, the “% Inhibition @ 10 uM” value is given as -6.68%. For the compound `CC(C)(C)NCc1nc(-c2ccccc2)no1`, the “% Inhibition @ 10 uM” value was -1.81%. Turning to `COc1cc2c(C(=O)N3CCCCCC3)cn(CC(C)C)c(=O)c2cc1OC`, the “% Inhibition @ 10 uM” value was 0.505%.

Turning to `CN(Cc1ccco1)S(=O)(=O)c1nnc(NC(=O)C2CCCCC2)s1`, the “% Inhibition @ 10 uM” value is reported as -1.26%. For the compound `O=C(NCCCN1CCCC1=O)c1nnc(-c2ccc3c(c2)OCO3)o1`, the “% Inhibition @ 10 uM” value worked out at 1.23%.

In the case of `Cc1cc(Cl)ccc1OCC(=O)NCc1ccccc1`, the “% Inhibition @ 10 uM” value is reported as -3.37%. In the case of `CC1=CC2=NC(=O)/C(=C\c3ccc(OCc4ccc5c(c4)OCO5)cc3)C(=N)N2O1`, the “% Inhibition @ 10 uM” value worked out at 3.63%. For the compound `Cn1c(C(=O)NCCN2CCOCC2)cc2sccc21`, the “% Inhibition @ 10 uM” value is recorded as -4.85%. Consider `COc1ccccc1-n1c(N)c(C#N)c2nc3ccccc3nc21`, for which the “% Inhibition @ 10 uM” value is on record as 3.31%. On to `COc1ccc(NC(=O)c2ccc(N(Cc3ccc(Cl)cc3)S(C)(=O)=O)cc2)c(OC)c1`, for which the “% Inhibition @ 10 uM” value is recorded as 2.02%. Next, `c1ccc(N2CCN(Cc3ccco3)CC2)cc1`: -0.0404%; `CCC1CCCCN1C(=O)c1sc2nc(C)nc(N(CC)CC)c2c1C` (stereo not drawn): 5.85%. For the compound `CC(=O)Nc1nc2n(n1)C(c1ccccc1)C=C(c1ccccc1)N2` (stereo not drawn), the “% Inhibition @ 10 uM” value stood at 2.56%. For `CCN(CC)S(=O)(=O)c1cc(C(=O)Nc2ccccc2OC)ccc1C` the value was -3.55%.

Regarding `O=C(O)CNc1nc(Oc2ccccc2)nc(Oc2ccccc2)n1`, the “% Inhibition @ 10 uM” value is listed as -2.72%. On to `COc1cccc(CNCc2c(C(=O)O)c(C)n(Cc3ccc(Cl)cc3)c2C)c1OC`, for which the “% Inhibition @ 10 uM” value is -1.92%.

Consider `CC(C)NC(=S)N(CCc1ccncc1)C(C)C`, for which the “% Inhibition @ 10 uM” value was 5.47%.

Turning to `CCCNC(=O)c1oc2ccc3c(c2c1C)C(=O)CC(C)(c1ccc(F)cc1)O3` (stereo not drawn), the “% Inhibition @ 10 uM” value is 2.84%. As for `Cc1ccc(C(=O)N/C(=C\c2cccs2)C(=O)N2CCN(C)CC2)cc1C`, the “% Inhibition @ 10 uM” value is given as -0.968%. With `c1ccc(CN2CCc3ccccc3C2)nc1`, the “% Inhibition @ 10 uM” value is reported as -4.14%. For `Fc1ccc2[nH]c3c(N4CCOCC4)ncnc3c2c1`, the “% Inhibition @ 10 uM” value is listed as -1.85%. For `O=C1NC(=O)/C(=C\c2ccc(-c3ccc(Cl)cc3)o2)S1`, the “% Inhibition @ 10 uM” value turned out to be 6.08%. Consider `CC(=O)Nc1ccc(NS(=O)(=O)c2ccc3c(c2)OCCO3)cc1`, for which the “% Inhibition @ 10 uM” value was -7.5%. Consider `CCCCNC(=O)C1CCC(CNS(=O)(=O)c2cccc3nsnc23)CC1` (stereo not drawn), for which the “% Inhibition @ 10 uM” value is listed as -4.34%. As to `CC(C)NC(=O)c1cc(-c2ccc(Cl)c(Cl)c2)on1`, the “% Inhibition @ 10 uM” value is given as -3.77%. As to `CCCc1nc2c3ccccc3nc(NCc3ccccc3)n2n1`, the “% Inhibition @ 10 uM” value was 2.6%.

Turning to `Cc1ccc(S(=O)(=O)NCC2CCN(S(=O)(=O)c3ccc(C)cc3)CC2)cc1`, the “% Inhibition @ 10 uM” value is 3.33%. Take `Cc1nnc2n1N=CC=C(c1ccccc1)S2`: the “% Inhibition @ 10 uM” value is -3.5%. On to `CCOC(=O)c1c(C)[nH]c(C)c1S(=O)(=O)NCc1ccc(C)o1`, for which the “% Inhibition @ 10 uM” value stood at 2.09%. Next, `COc1cc(CNC(=O)c2ccc(Cn3nc(C)c(Cl)c3C)o2)cc(OC)c1`: 0.317%; `CCN(Cc1ccccc1)Cc1ccc2c(c1)c1ccccc1n2CC`: -6%; `CCCCCCCC(=O)c1c(C)[nH]c(C(=O)OCC)c1C`: -4.31%.

The values above are taken from paper PMC6919601, “Identification of Plasmodium dipeptidyl aminopeptidase allosteric inhibitors by high throughput screening” (PLoS ONE, 2019).
